Whole data set: some 33,000 sequences, median “E-score (-0.5 to 0.5)” near -0.012, cut for the highest 2% near 0.29. The list shows a part of the results.
What follows are sequences tested against T1, Ybr033w (UniProt P38073) (assay: PBM E-score (8-mer binding enrichment) (E-score (-0.5 to 0.5)); higher = stronger / more preferred TF binding; most listed sequences are background and not binding sites). Settings: protein concentration: 200 nM; construct: GST-full length.
T1 sequence: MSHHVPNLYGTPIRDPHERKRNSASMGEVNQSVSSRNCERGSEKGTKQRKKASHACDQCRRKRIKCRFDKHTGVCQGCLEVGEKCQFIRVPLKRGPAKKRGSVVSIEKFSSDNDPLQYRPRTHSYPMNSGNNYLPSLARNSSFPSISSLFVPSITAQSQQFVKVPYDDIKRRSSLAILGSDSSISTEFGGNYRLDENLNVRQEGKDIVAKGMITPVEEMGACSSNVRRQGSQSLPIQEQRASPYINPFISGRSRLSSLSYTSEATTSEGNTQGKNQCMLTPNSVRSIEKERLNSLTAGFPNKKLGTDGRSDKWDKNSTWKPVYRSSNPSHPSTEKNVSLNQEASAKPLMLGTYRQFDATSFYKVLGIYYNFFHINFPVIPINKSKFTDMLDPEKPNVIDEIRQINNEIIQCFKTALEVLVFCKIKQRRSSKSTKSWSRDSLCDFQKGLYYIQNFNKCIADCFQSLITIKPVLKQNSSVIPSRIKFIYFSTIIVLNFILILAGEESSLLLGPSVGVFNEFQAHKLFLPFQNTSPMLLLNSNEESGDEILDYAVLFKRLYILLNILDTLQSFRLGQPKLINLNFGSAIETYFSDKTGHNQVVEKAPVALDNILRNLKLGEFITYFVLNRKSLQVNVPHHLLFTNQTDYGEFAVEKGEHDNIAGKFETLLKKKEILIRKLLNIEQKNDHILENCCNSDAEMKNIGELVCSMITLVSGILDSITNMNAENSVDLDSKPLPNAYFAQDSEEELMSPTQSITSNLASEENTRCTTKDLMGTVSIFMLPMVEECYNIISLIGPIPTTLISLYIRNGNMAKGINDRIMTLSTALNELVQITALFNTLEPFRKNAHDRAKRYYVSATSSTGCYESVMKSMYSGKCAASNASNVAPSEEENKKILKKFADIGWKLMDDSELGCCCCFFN
Method in brief: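 For each ungapped eight-base word taken together with its reverse complement, the Universal PBM Analysis Suite assigned an E-score. Binding data came from GST-tagged yeast transcription factors, applied at about 100-200 nM, on universal all-10-mer Agilent arrays made double-stranded by primer extension. Fluorescent anti-GST marked bound protein, and scans were normalised with masliner.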

Sequence	PBM E-score
AATTTGGC	0.088
ACGAGCGC	-0.0924
AAGACGGG	-0.19
AGACGGAC	-0.0985
GACCGTAA	-0.0228
CAGCAGTA	-0.173
GCATTACC	-0.197
CAGCTCTC	-0.186
AAATCTTG	0.161
TAGGACTA	-0.018
AACGTCGA	0.0522
CAAACGTG	0.0486
TAGCATAA	0.131
CACAATAG	0.0709
GGCCGGAA	0.00433
CTCGCTTC	-0.141
ACGGTAGC	-0.123
ACATATGG	0.0477
CTACAACC	0.0217
GGCGCAGA	-0.125
GGCCGGCA	-0.101
TGACCACA	0.0413
ATTCCAAA	0.122
CGATAGAG	-0.105
CGCACTCA	-0.00522

Sequence	PBM E-score
ACTTCTAG	-0.275
AAACATAG	-0.0824
AAGTGCGG	0.00906
CCATTGTC	-0.115
GCCAGTAA	-0.181
ACATGTTC	0.0642
ACAATAGA	0.0135
AGCCGTAG	0.0421
ATTGGGGG	-0.226
AATTGTGC	0.0541
CGGCCGCC	-0.311
CCTATCGA	-0.0516
GAGGCCGA	-0.114
CGTCAGGC	-0.119
CTCCCACC	-0.266
CGTGCTCA	-0.0648
CCACGACG	-0.112
GATGCCAA	-0.0929
ACTTTATG	0.132
CGTCTAGA	-0.0834
GCGTACGA	-0.0653
TAATAGGA	0.233
TCTTTAAA	0.23
AGGGTTTA	0.099
ATTGAGGG	-0.0862

Sequence	PBM E-score
ATAAGTAT	0.244
CCGCTCCC	-0.344
AGACTCAC	-0.129
ATATCTAG	0.112
CAGGTTAG	-0.0552
CTTCGTTA	0.0726
ATTCGCCG	0.0215
CGACACCA	-0.117
CGCGTAAG	-0.00396
GTAGCGAA	0.0213
CAATTATC	0.365
CAGCGCCA	-0.0653
ACTGATTA	0.041
TCGTGTCA	-0.0803
CCCTGCGC	-0.153
AAACTATG	0.031
ACGTTAAA	0.223
CCACGTAG	-0.372
CGTGCTTC	-0.00539
CGTTAAAG	0.0631
GCGCTTCA	-0.119
AAGACCAA	0.0438
AAGGGGCG	-0.388
GAGACTGC	-0.177
AACTTATC	0.15

Sequence	PBM E-score
ATCACCCC	-0.165
CTAAAAAC	-0.0569
CCTAGCCG	-0.157
AGCCCAGA	-0.019
GCGCGTCC	-0.228
ACAACAGA	0.0571
TACCCGAA	-0.0207
CGCACCTA	-0.142
ACATATCG	0.142
ATAGGCAG	0.146
CGTACTTC	0.107
GAGGTTCA	0.102
TGAGAAAA	0.171
GCACTGCC	-0.0815
CATTTCTC	0.176
AACCCCCA	-0.327
AAACCGAT	-0.13
CAGCGGCC	-0.213
GCGGCTCA	-0.114
ATGTGGTG	0.00042
CGTTATAG	0.14
AGAGGCGC	-0.253
ACGACCAC	-0.074
ACGCCCCT	-0.389
GGCTAGAA	-0.0194

Sequence	PBM E-score
AGAGTGAA	0.133
CGGCGCCC	-0.165
CGGCTCTC	-0.149
ATCGGGGA	-0.0917
AGCGGATA	-0.0282
GAGCTCAA	-0.0698
ACGTTCCT	0.0175
CTAACAAG	0.143
GGAATACA	-0.0739
ACCAAGAG	-0.131
AGGATCCT	-0.0773
CTGTACAG	0.0953
CTTTGGGA	0.0787
CGAAGCTA	0.0437
GCAACAAA	0.153
CGCCTCTA	-0.0522
CCGACAGA	0.161
CCCCACAA	-0.229
ATGCTTGC	-0.0843
ACATTACG	0.0344
CCTCGGGC	-0.251
AACGACGG	0.0565
CGCGAGTA	0.00596
ACGGAGGA	-0.217
CCACATTA	0.0151

Sequence	PBM E-score
CATTGTGA	0.0401
AAACTGTG	0.166
GGCCTCAC	-0.213
AGGCGCTC	-0.241
GATGACAA	0.0655
GCGAACAC	-0.209
CCTTGCAG	-0.225
TAACTCAA	0.172
ATATGCGA	0.196
ATCTGCTG	-0.0498
CCAGGGGC	-0.399
CTCCCCCA	-0.28
CTCACCTC	-0.171
AAAGCTAT	0.192
CTGGAAGC	-0.1
AATGCACC	0.0608
CATAGAGC	-0.133
AATTAACC	0.158
ATACGACA	0.118
ATAAGAAT	0.18
AGCAACGC	-0.115
AAAGGCCA	-0.134
ACCAGTAA	0.118
ACATTACA	0.256
GATCCATA	0.0143

Sequence	PBM E-score
ACTGACTC	-0.00303
GAACGCCA	-0.133
TGCTTGAA	0.222
ACCCGGTA	0.0125
CTGGGTTA	-0.00774
CAAGTGAC	-0.0343
CTGAGGTC	-0.321
CCTCTTGC	-0.238
GAGGTTCC	-0.153
CGAGTCAG	-0.078
CTATACCA	0.0571
AACTTGAT	0.333
AGTAGTAT	0.185
GGACGTAC	-0.268
ACAGCAGC	0.0657
CACTCCAG	-0.0494
CAGCTGAG	-0.0513
CGACGGCG	-0.264
CGCCAATA	0.0874
ACTTACCT	-0.046
AATGCCTA	0.09
GAAGTAAA	0.229

— the supplement of paper PMC3334620
